Source: the supplement of paper PMC11417369
± gives the standard deviation of the averaged measurements. The list shows a part of the results.

What follows are sequences tested on PfAP2-EXP AP2 domain (GST-tagged) (assay: gcPBM binding intensity (ln(normalized median fluorescence intensity)); higher = stronger DNA binding).
Method in brief: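 Plasmodium falciparum DNA-binding domains carrying a GST tag were expressed in E. coli and applied for 1 h, at about 25 μg on average, to an Agilent 4 × 180k array. The array held primer-extended double-stranded 36-bp intergenic genomic probes together with negative controls, and binding took place in 1× PBS with 1% milk, 0.2 mg/ml BSA, 0.5% salmon testes DNA and 0.03% Triton X-100. An Alexa488 anti-GST antibody detected bound protein, and the array was scanned at 488 nm. Binding intensity is taken as the highest Masliner-normalised natural-log median intensity across replicate spots of either probe orientation.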

“TGTTATATATGTAATTGTACACTTATACAAAATTAT [XGTACX_site6350]” and “TTTTTTAATTAGTACAAACACACATATACAGACAAA [CACACA_site2564]” are within error of each other in “gcPBM binding intensity (ln)” value: 8.52 ± 0.22 for the first, 8.99 ± 0.46 for the second.

“AAAAAAATTAGACACACACACACATATAAATATGTA [CACACA_site6618]” and “ATTTAGAATGCGTATACACACATATATAGATTTGCT [CACACA_site626]” are within error of each other in “gcPBM binding intensity (ln)” value: 8.41 ± 0.57 for the first, 8.56 ± 0.37 for the second.

“ATTTAAAAATAAAGAACACACATATGTAAAATATAT [CACACA_site3754]” and “CAAAATATAACATCATCACACACATATACTTTATAT [CACACA_site8292]” are within error of each other in “gcPBM binding intensity (ln)” value: 8.68 ± 0.59 for the first, 8.62 ± 0.21 for the second.

“TATTTAAGAGTATGAACACACATCATACACATATAA [CACACA_site3617]” and “TTATTAATATATAAATGTACATATACAATACATAAA [XGTACX_site5571]” are within error of each other in “gcPBM binding intensity (ln)” value: 8.47 ± 0.38 for the first, 8.45 ± 0.34 for the second.

“TATGTTTGTGTATATATTTATTTTTATGTAATTATA [GTGCAC_negctrl_site219]” and “TTATATTATATATATAGTACACATGTAATATTTCAA [XGTACX_site1791]” are within error of each other in “gcPBM binding intensity (ln)” value: 8.77 ± 0.27 for the first, 8.46 ± 0.27 for the second.

“ATAAATTAAAGACACACACACATCTGGATACCCCTA [CACACA_site7546]” and “TACATGCATTTCTCATGTACATAATTTTCCCATATT [XGTACX_site5158]” are within error of each other in “gcPBM binding intensity (ln)” value: 8.85 ± 0.53 for the first, 8.81 ± 0.4 for the second.

“ATCTATATAATATATACACACAAATATACAAAAAAA [CACACA_site1013]” and “TTTTATACATAAATGTGTACGTATATATAATGAATT [XGTACX_site2762]” are within error of each other in “gcPBM binding intensity (ln)” value: 8.64 ± 0.56 for the first, 8.59 ± 0.32 for the second.

“TAAATATGCTCACAGATGCACTAACACATTTTTATA [GTGCAC_site9997]” and “TATTGTAGAGGCAAAAGTACACATTTAATAATTTCC [XGTACX_site1151]” are within error of each other in “gcPBM binding intensity (ln)” value: 8.39 ± 0.16 for the first, 8.38 ± 0.28 for the second.

“AAAATTAGGTATATATGTACATATATAAATATATAT [XGTACX_site3555]” and “TCCTTATATGGGCACACACACACAATAAAATGAAAA [CACACA_site1030]” are within error of each other in “gcPBM binding intensity (ln)” value: 8.7 ± 0.35 for the first, 8.89 ± 0.53 for the second.

Going from “GTTTATATTAAACAAACACACACATATATATATATA [CACACA_site8749]” to “TATGCTACAAGGAGAACACACAATTGCCACTTTTGG [CACACA_site2166]”, the “gcPBM binding intensity (ln)” value falls from 10.2 ± 0.26 to 8.59 ± 0.53.

“AACCATTATTTCTCTACACACATTTATGTCATTTAC [CACACA_site1499]” and “TATATAATGGTAAAAACACACAAATATGAAGATGTT [CACACA_site722]” are within error of each other in “gcPBM binding intensity (ln)” value: 8.86 ± 0.56 for the first, 8.69 ± 0.39 for the second.

First: CGTGTGTCCCCCTTAATCATCCAATCGTTCATTTTG [CACACA_negctrl_site1008]
Second: AAATATAAAAGTATATGTACATATATATATATATAT [XGTACX_site7446]
The “gcPBM binding intensity (ln)” value of the first is lower: 8.95 ± 0.26 for the first, 10.1 ± 0.3 for the second.
